Assay results from PubChem BioAssay AID2451 (National Center for Advancing Translational Sciences (NCATS), 2010).
Hit rate of the full screen: of about 290,000 compounds, about 2,100 (0.72%) were called active. This list was built around the results that the source calls inconclusive (neither active nor inactive); the mix of calls is not that of the screen. Calls follow the shape of the dose curve; as a rule, active = well fitted inhibition curve with a large enough effect; inconclusive = small, poorly fitted or top-dose-only effect, or effect the other way; inactive = flat fitted curve, though single readings scatter. A potency beside an inconclusive call is a rough fit, not a confirmed value.

Biological target: Fructose-bisphosphate aldolase (Giardia intestinalis (strain ATCC 50803 / WB clone C6)) (UniProt A8B2U2)
Assay: qHTS Assay for Inhibitors of Fructose-1,6-bisphosphate Aldolase from Giardia Lamblia; also: nearly all actives have a fitted effect of over 55% in size
Details: purified Giardia FBPA; series mostly up to 59.6 µM
How it was run: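 Giardia FBPA (40 nM reagent) was preincubated 10 min at RT with compound (up to 57.5 uM final), then substrate plus GAPDH/TPI/NAD/arsenate coupling system with diaphorase/resazurin was added; resorufin fluorescence (525/598 nm) was read after 20 min.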
Potency is read from the fitted curve at half-maximal effect; tags tell the direction and shape of the fitted curve.

UniProt A8B2U2, sequence (A8B2U2 whole entry, looked up): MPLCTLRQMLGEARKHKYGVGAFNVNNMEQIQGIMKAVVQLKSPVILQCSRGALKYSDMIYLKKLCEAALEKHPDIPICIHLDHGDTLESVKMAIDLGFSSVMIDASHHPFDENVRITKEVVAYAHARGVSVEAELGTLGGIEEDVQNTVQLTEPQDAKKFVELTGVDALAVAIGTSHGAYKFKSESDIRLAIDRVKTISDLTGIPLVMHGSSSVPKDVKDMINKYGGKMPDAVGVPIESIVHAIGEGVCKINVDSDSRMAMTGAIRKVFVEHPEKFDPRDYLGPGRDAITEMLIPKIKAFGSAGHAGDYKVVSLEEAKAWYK

SMILES | Potency
O=C(NC(=S)NNC(=O)c1ccc(Cl)cc1Cl)c1cccnc1 | inconclusive: 17.7 µM [activator, single point]
CCCn1c(C(C)Nc2nc(-c3ccc(Cl)c([N+](=O)[O-])c3)cs2)nc2ccccc21 (stereo not drawn) | inconclusive: 14.1 µM [inhibitor, partial curve]
O=C(NC(=S)Nc1ccc2ncccc2c1)c1ccccc1 | inconclusive: 28.1 µM [inhibitor, single point]
CCc1ccc(OCCCCN(C)Cc2ccccc2)cc1 | inconclusive: 11.2 µM [inhibitor, partial curve]
O=C(CCCN1C(=O)/C(=C\c2ccco2)SC1=S)Nc1cccc2ccccc12 | inconclusive: 17.7 µM [inhibitor, partial curve]
CC1=C(C#N)C(=O)NC(=O)/C1=C\c1ccc(-c2cc(C)c(C)cc2[N+](=O)[O-])o1 | inconclusive: 17.7 µM [inhibitor, partial curve]
C[C@@H](CCCCC(=O)Nc1ccc(C(F)(F)F)cc1)NCCc1cnc[nH]1 | inactive
NC1=NC(=O)/C(=C\c2ccco2)S1 | inconclusive: 19.9 µM [inhibitor, partial curve]
O=S1(=O)N=C(Nc2nncs2)c2ccccc21 | inconclusive: 17.7 µM [inhibitor, partial curve]
O=C(Nc1nnc(-c2ccccn2)o1)c1cccc(Cl)c1 | inconclusive: 17.7 µM [inhibitor, single point]
CSc1cccc(NC(=O)C2CCCN2S(=O)(=O)c2ccc(Br)s2)c1 (stereo not drawn) | inactive
CCC1Oc2ccc(C)cc2N(CC(=O)N(Cc2ccc(C)o2)C2CC(C)(C)NC(C)(C)C2)C1=O (stereo not drawn) | inactive
O=C(O)CSc1nnc(-c2ccccc2)c(-c2ccccc2)n1 | inactive
S=C(Nc1ccc2nsnc2c1)NC1CCCCC1 | active: 1.77 µM
Cn1cc(Br)c(C(=O)N/N=C/c2cccc(OC3CSC3)c2)n1 | inactive
Cc1cn(CCC(=O)Nc2ccccc2N2CCOCC2)c2ccccc12 | inactive
Cn1c(=O)c2c(nc(N/N=C/c3cccs3)n2Cc2ccccc2)n(C)c1=O | inconclusive: 14.1 µM [inhibitor, partial curve]
CCOc1ccccc1N1CSC2=C(C#N)C(c3c(OC)ccc4ccccc34)CC(=O)N2C1 (stereo not drawn) | active: 6.29 µM
COC(=O)CCC(=O)OC1(C)C(=O)C2=CN(CC(C)C)C(c3ccc(OC)cc3)=CC2=C(Br)C1=O (stereo not drawn) | active: 0.998 µM
CC(O)[C@@H](O)[C@H]1CNc2nc(N)[nH]c(=O)c2N1 (stereo partly drawn) | inactive
Cn1cccc1C(=O)N1CCC2(CC1)CN(C(=O)Nc1cccc(F)c1)C2 | inactive
CCOC(=O)C(C)Sc1nnc(NC(=O)c2ccc(C)c([N+](=O)[O-])c2)s1 (stereo not drawn) | inconclusive: 15.8 µM [inhibitor, partial curve]
NS(=O)(=O)c1ccc(N/N=C/c2ccc(O)cc2O)c([N+](=O)[O-])c1 | inactive
CCOC(=O)C1CCCN(Cc2cccc(Cl)c2)C1 (stereo not drawn) | inactive

SMILES | Potency
Cc1nnc(NC(=O)c2ccc(S(=O)(=O)N3CCc4ccccc4C3)cc2)o1 | active: 17.7 µM
COc1ccc(CC(C(=O)Nc2ccc(OC)cc2)c2nn[nH]n2)cc1 (stereo not drawn) | inconclusive: 14.1 µM [inhibitor, partial curve]
COc1ccc(NC(=O)NC2CCCc3ccccc32)cc1 (stereo not drawn) | inactive
COc1ccc(-n2c(C)cc(C(=O)CN3C(=O)C(=O)N(Cc4ccccc4)C3=O)c2C)cc1 | inconclusive: 3.97 µM [inhibitor, full curve]
O=C(N/N=C/c1cccc([N+](=O)[O-])c1)c1ccccc1-n1cccc1 | inconclusive: 22.3 µM [inhibitor, single point]
Cc1ccccc1N1CCN(CC(=O)Nc2nc(C)c(C(=O)N(C)C)s2)CC1 | inconclusive: 4.47 µM [inhibitor, full curve]
Cc1ccc(OCC(=O)N/N=C\c2c(C)[nH]n(-c3ccccc3)c2=O)c([N+](=O)[O-])c1 | inconclusive: 31.5 µM [activator, single point]
CCS(=O)(=O)c1cc([N+](=O)[O-])c(Sc2ccccc2N)s1 | active: 15.8 µM
CCCOc1ccc(/C=N/Nc2cc(N3CCOCC3)ncn2)c(O)c1 | inconclusive: 20 µM [activator, partial curve]
CC(C)(C)c1ccc(CN2N=Nc3ccccc3S2(=O)=O)cc1 | inconclusive: 19.9 µM [inhibitor, partial curve]
N#Cc1ccsc1NC(=O)c1ccccn1 | active: 19.9 µM
O=c1cc(CN2CCCc3ccccc32)nc2sccn12 | inconclusive: 14.1 µM [inhibitor, partial curve]
O=C1CCCN1CCCNC(=S)Nc1ccccc1 | inconclusive: 35.4 µM [inhibitor, single point]
Cc1nc(NC(=O)c2cc3ccccc3o2)sc1C | inactive
C[C@@H]1C(=O)N(S(=O)(=O)c2ccc([N+](=O)[O-])cc2)[C@H]1c1ccccc1 | inconclusive: 25.1 µM [activator, partial curve]
CC(C)CSc1n[nH]c(=S)s1 | inconclusive: 15.8 µM [inhibitor, single point]
N#CC(C#N)=Cc1cccnc1 | inconclusive: 17.7 µM [inhibitor, single point]
Clc1cccc(-c2nnc3sc(-c4ccc5c(c4)OCO5)nn23)c1 | inactive
O=C1CCCc2oc3c(cc(NS(=O)(=O)c4ccc5c6c(cccc46)C(=O)N5)c4ccccc43)c21 | inconclusive: 14.1 µM [inhibitor, partial curve]
Cn1c(N)c(C#N)c2c(c1=S)CSC(C)(C)C2 | inconclusive: 17.7 µM [inhibitor, partial curve]
Cc1cccc2c1-c1sc(C(=O)NCCCN3CCc4ccccc4C3)cc1CO2 | inconclusive: 22.3 µM [inhibitor, single point]
CCCCC(=O)N/N=C/c1c(O)n(-c2ccccc2)c(=O)[nH]c1=O | active: 8.89 µM
S=c1nc(-c2csc3c2CCCC3)[nH][nH]1 | inactive
Oc1ccc(Br)cc1C=Nc1cccn2cc(-c3ccccc3)nc12 | inconclusive: 17.7 µM [inhibitor, partial curve]
